# Among all 310,000 compounds or so, about 2,200 (0.71%) showed an effect of 50% or more. The effect is printed as a negative number. The list shows a part of the results.
# Biological target: human ether-à-go-go-related gene (hERG) potassium channel (human, UniProt Q12809)
# Experiment: primary screen, population patch clamp on CHO cells stably expressing hERG
# Chain of human ether-à-go-go-related gene (hERG) potassium channel (Q12809 whole entry, looked up): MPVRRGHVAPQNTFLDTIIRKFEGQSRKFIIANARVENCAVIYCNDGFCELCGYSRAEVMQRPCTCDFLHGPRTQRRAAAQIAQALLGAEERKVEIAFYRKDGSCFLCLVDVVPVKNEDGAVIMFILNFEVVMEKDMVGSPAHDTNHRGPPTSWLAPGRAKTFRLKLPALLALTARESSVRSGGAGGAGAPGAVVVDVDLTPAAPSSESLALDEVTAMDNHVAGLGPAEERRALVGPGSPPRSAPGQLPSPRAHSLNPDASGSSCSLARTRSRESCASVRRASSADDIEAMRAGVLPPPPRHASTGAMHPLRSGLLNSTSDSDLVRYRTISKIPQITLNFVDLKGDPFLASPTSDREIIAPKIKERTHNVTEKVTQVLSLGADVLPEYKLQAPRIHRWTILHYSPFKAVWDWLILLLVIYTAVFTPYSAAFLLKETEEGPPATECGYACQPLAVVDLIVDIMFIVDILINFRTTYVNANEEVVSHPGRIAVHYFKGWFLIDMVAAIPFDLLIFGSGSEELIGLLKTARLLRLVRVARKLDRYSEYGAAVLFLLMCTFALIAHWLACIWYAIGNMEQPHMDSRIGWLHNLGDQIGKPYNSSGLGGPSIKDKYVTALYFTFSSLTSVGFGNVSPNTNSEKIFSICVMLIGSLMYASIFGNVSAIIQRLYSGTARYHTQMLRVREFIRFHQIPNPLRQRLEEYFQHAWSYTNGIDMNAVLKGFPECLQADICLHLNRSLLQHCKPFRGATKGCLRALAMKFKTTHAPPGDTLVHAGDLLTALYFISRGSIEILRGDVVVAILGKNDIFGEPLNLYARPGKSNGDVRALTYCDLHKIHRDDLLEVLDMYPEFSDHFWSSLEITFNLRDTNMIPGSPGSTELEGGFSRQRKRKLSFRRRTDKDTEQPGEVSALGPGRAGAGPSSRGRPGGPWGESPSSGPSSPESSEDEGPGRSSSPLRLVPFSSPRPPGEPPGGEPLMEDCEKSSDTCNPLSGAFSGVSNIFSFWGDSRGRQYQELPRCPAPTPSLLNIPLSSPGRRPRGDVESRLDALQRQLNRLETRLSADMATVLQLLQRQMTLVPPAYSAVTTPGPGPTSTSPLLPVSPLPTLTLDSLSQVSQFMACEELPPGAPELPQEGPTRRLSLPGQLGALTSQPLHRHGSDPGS
row,SMILES,"hERG current change (%, negative = inhibition) at 1uM"
1,COc1cccc(CN(C)C(=O)C2CSC3(C)CCC(=O)N23)c1OC (centres unmarked),11%
2,Cl.Fc1ccc(CCNCc2ccccc2Cl)cc1,3.93%
3,O=C(CNc1ccc(Br)cc1)c1ccccc1,13.6%
4,Oc1ccc(-[n+]2c(-c3ccccc3)cc(-c3ccccc3)cc2-c2ccccc2)cc1.[O-][Cl+3]([O-])([O-])[O-],5.58%
5,O=Cc1cc(N=Nc2ccccc2Cl)ccc1O,14.5%
6,COc1ccc(-c2ncnc(C(F)(F)F)c2-c2csc(C)n2)c(O)c1,10.1%
7,C[C@H]1CN=C(Nc2ccccc2)N1CCCC1CCCC1,-23.6%
8,COc1ccc(C2=Nc3cccc4cccc(c34)N2)cc1,16.9%
9,CCOc1cc(C(=O)OCC(=O)NC(C)c2ccccc2)ccc1OCC(=O)N1CCOCC1 (centres unmarked),5.73%
10,CN(C(=O)c1ccc(NC(=O)Cc2ccc(NC(=O)C3CCCN(C(=O)CCc4ccccc4)C3)cc2)cc1)C1CC1 (centres unmarked),3.78%
11,O=C(Nc1ccnn1C1CCN(Cc2ccc3nonc3c2)CC1)c1cccc(F)c1,-1.92%
12,COC(=O)C(Cc1cccc(C)n1)(c1ccccc1)c1ccccc1,8.47%
13,CCOC(=O)c1[nH]c2ccccc2c1NC(=O)c1ccc2c(c1)OCO2,-3.54%
14,Cc1ccc(-c2nsc(SCC(=O)NCC3CCCO3)n2)cc1 (centres unmarked),5.46%
15,Cc1n[nH]c(=O)c2c(NC(=O)CSc3nnc(C4CC4)n3C)oc(C)c12,9.12%
16,COc1ccccc1NS(=O)(=O)c1cccc(C(=O)N/N=C/c2ccc3c(c2)OCCO3)c1,15.7%
17,CN(C(=O)CSc1ncccc1C(=O)O)c1ccccc1,3.32%
18,Cc1ccccc1NC(=O)OCc1cn(-c2ccc(Cl)cc2)nn1,-0.894%
19,CCc1nc2ccccc2n1CCc1ccccc1.Cl,7.95%
20,Cc1cccc(N2CCN(S(=O)(=O)c3cccc4nonc34)CC2)c1C,13.1%
21,Cc1nnc(SCc2ccccc2Cl)n(N)c1=O,6.01%
22,COc1ccc(C2CC(c3ccc(Br)cc3)=NN2C(=O)CSC2=NN3CCCC(=O)N=C3S2)cc1 (centres unmarked),31.1%

row,SMILES,"hERG current change (%, negative = inhibition) at 1uM"
1,CC(=O)Nc1ccc(NC(=O)Cc2ccc(S(=O)(=O)N3CCCCC3)s2)cc1,5.23%
2,CCC(Cc1ccccc1)NC(=O)CN1C(=O)CSc2ncccc21 (centres unmarked),3.05%
3,CCOC(=O)c1snc2c(=O)[nH]cnc12,6.65%
4,Cc1ccc(C(=O)Nc2ccccc2C(=O)O)cc1S(=O)(=O)Nc1ccccc1,7.94%
5,CCOc1ncccc1C(=O)Nc1nnc(C(CC)CC)s1,5.97%
6,CCOP(=O)(OCC)C(NC(=O)c1cccs1)c1ccccc1 (centres unmarked),12.8%
7,COc1cccc2c1O/C(=N\O)C(C(=O)Nc1ccc(C)cc1)C2 (centres unmarked),12%
8,CC1CCC2C(C1)Nc1c(C(=O)O)cccc1C2(C)C (centres unmarked),28%
9,Cc1nn(C)cc1NC(=O)Cn1nc(C(F)(F)F)cc1C1CC1,10.1%
10,O=C(CSc1ncccn1)Nc1ccccc1,7.86%
11,CSc1nnc(-c2ccc(Br)s2)n1C,10.5%
12,CC(=O)/C(N=Nc1cc2c(c([N+](=O)[O-])c1C)C(C)(C)CC2(C)C)=C(\C)O,-0.089%
13,O=C(OCC(=O)N1CCN(c2ccccc2)CC1)c1ccc[n+]([O-])c1,8.51%
14,CCN(CC)S(=O)(=O)c1cccc2cccnc12,2.86%
15,Cc1nc(-c2ccccc2)nn1-c1ccc([N+](=O)[O-])cc1,-2.48%
16,CCOC(=O)c1cc(C)n(Cc2ccccc2)c1C,8.26%
17,O=C(N/N=C/C1CC2CCC1C2)C1CC1 (centres unmarked),32.5%
18,CCN1C(=O)N(C)C(N(O)C(=O)NC)C1(C)C (centres unmarked),0.825%
19,Cc1ccc(C(=O)N/C(=C\c2cccs2)C(=O)N2CCCCCC2)cc1,-19.3%
20,COc1ccc(C(=O)NCC(=O)Nc2ccccc2)cc1OC,19.7%
21,Cc1ccsc1C(=O)OCC(=O)N(C)c1c(N)n(Cc2ccccc2)c(=O)[nH]c1=O,34.6%
22,Cc1noc(C)c1CSCC(=O)Nc1cc(S(=O)(=O)N2CCOCC2)ccc1OC(C)C,-5.31%
